Experimental data as given in the CheMixHub ionic liquid set.
± gives the uncertainty stated by the source. The source gives many values for each of these; only a part stands here.

Assay: xn = mol fraction of the nth substance listed
Settings: 328.15 K, 100.3 kPa

SMILES | viscosity (x1 = 0.003004) [mPa·s] | viscosity (x1 = 0.004999) [mPa·s] | viscosity (x1 = 0.007004) [mPa·s] | viscosity (x1 = 0.008999) [mPa·s] | viscosity (x1 = 0.011) [mPa·s] | viscosity (x1 = 0.01301) [mPa·s] | viscosity (x1 = 0.015) [mPa·s] | viscosity (x1 = 0.01799) [mPa·s] | viscosity (x1 = 0.00302) [mPa·s] | viscosity (x1 = 0.005081) [mPa·s] | viscosity (x1 = 0.006922) [mPa·s] | viscosity (x1 = 0.009062) [mPa·s] | viscosity (x1 = 0.01107) [mPa·s] | viscosity (x1 = 0.01292) [mPa·s] | viscosity (x1 = 0.0148) [mPa·s] | viscosity (x1 = 0.01797) [mPa·s]
CCC[n+]1ccn(C)c1.C[C@H](N)C(=O)[O-] + O | 0.58 ± 0.016 | 0.625 ± 0.016 | 0.673 ± 0.016 | 0.717 ± 0.016 | 0.764 ± 0.016 | 0.807 ± 0.016 | 0.851 ± 0.016 | 0.912 ± 0.016 |  |  |  |  |  |  |  | 
CCCCC[n+]1ccn(C)c1.C[C@H](N)C(=O)[O-] + O |  |  |  |  |  |  |  |  | 0.58 ± 0.015 | 0.625 ± 0.015 | 0.672 ± 0.015 | 0.716 ± 0.015 | 0.763 ± 0.015 | 0.807 ± 0.015 | 0.85 ± 0.015 | 0.911 ± 0.015
